Source: the BET-seq Pho4 binding data (Le et al. 2018)
Some of the results follow. These are noisy estimates, calculated here from bound and input reads.

molecular target: T1, Pho4 (S. cerevisiae) (UniProt P07270); test: relative binding free energy (BET-seq); higher = weaker binding; settings: reference: library average
T1 sequence: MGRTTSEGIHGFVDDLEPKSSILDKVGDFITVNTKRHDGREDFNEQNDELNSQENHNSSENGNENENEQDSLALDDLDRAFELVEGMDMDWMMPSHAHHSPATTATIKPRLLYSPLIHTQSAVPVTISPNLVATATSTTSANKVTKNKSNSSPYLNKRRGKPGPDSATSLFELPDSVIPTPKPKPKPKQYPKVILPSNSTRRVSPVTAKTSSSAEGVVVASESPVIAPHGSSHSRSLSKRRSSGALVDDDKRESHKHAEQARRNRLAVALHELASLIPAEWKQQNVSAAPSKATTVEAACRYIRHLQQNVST

| Sequence | relative binding free energy |
| --- | --- |
| TACTACACGTGGGGTT | -0.15 kcal/mol |
| TGCTGCACGTGGGTCT | -0.21 kcal/mol |
| ATTGTCACGTGTCAGT | 0 kcal/mol |
| GGGCGCACGTGTGTCG | -0.06 kcal/mol |
| CGTAGCACGTGAGGGT | 0.11 kcal/mol |
| AATGGCACGTGAGGCG | 0.11 kcal/mol |
| TTGTTCACGTGGGGTC | 0.18 kcal/mol |
| ATTCTCACGTGTTTTA | 0.18 kcal/mol |
| AAGTGCACGTGGTTGC | -0.11 kcal/mol |
| TTTAACACGTGGCAGT | -0.04 kcal/mol |
| TGGTGCACGTGGTCTA | -0.23 kcal/mol |
| GTATTCACGTGCGCGG | 0.08 kcal/mol |
| TTCAGCACGTGCTGTT | -0.19 kcal/mol |
| GGCAACACGTGTGTGT | 0.16 kcal/mol |
| TAAAGCACGTGGTGGA | -0.12 kcal/mol |
| TCGAGCACGTGTGTTT | -0.05 kcal/mol |
| TGGAACACGTGTGCGT | -0.01 kcal/mol |
| GTCGACACGTGTTGTG | 0.12 kcal/mol |
| GGAGGCACGTGAGGCG | 0.14 kcal/mol |
| ATTAACACGTGGGTAT | -0.25 kcal/mol |
| TTAGCCACGTGGGGGT | -0.26 kcal/mol |
| TGTTACACGTGGTATC | -0.04 kcal/mol |
| GAATACACGTGGGTGG | -0.11 kcal/mol |
| ATGTTCACGTGCGTAG | 0.12 kcal/mol |
| AGGAACACGTGTATGT | 0.16 kcal/mol |

| Sequence | relative binding free energy |
| --- | --- |
| GGTACCACGTGGGGAG | -0.27 kcal/mol |
| ACAGACACGTGGTGTG | -0.1 kcal/mol |
| GGGTACACGTGGGGGG | 0.08 kcal/mol |
| AGGTCCACGTGGTCGT | -0.13 kcal/mol |
| TGTTCCACGTGGTTTT | -0.11 kcal/mol |
| GAGGTCACGTGACTGG | 0.24 kcal/mol |
| GGGTACACGTGGTTGG | 0.1 kcal/mol |
| TTTGACACGTGTTTTT | 0.14 kcal/mol |
| TTCGGCACGTGGTAGA | -0.01 kcal/mol |
| ATGTGCACGTGAGTGA | 0.08 kcal/mol |
| TCGATCACGTGGGGCG | 0.03 kcal/mol |
| TTTTCCACGTGAGAGT | 0.13 kcal/mol |
| CTTGGCACGTGCGAGT | -0.12 kcal/mol |
| GTTCGCACGTGGTATT | -0.1 kcal/mol |
| AGGGGCACGTGGGTCA | -0.26 kcal/mol |
| TCCGGCACGTGGGTAG | -0.24 kcal/mol |
| AAGTTCACGTGCGGTC | 0.32 kcal/mol |
| AGTAACACGTGATGTG | 0.15 kcal/mol |
| AGATGCACGTGTTGTA | -0.02 kcal/mol |
| ATTTGCACGTGCTTGT | 0.05 kcal/mol |
| AGCGGCACGTGCTTGG | -0.2 kcal/mol |
| TGTGACACGTGATAAT | 0.05 kcal/mol |
| CTTTTCACGTGGATTT | 0.27 kcal/mol |
| GGGGTCACGTGTGAAC | 0.17 kcal/mol |
| CTTTTCACGTGGTACG | 0.16 kcal/mol |

| Sequence | relative binding free energy |
| --- | --- |
| TAACGCACGTGGGTTG | -0.16 kcal/mol |
| TTATGCACGTGTGAAA | 0.15 kcal/mol |
| AGGCTCACGTGGGGTC | 0.08 kcal/mol |
| TTGTGCACGTGGGAAT | -0.09 kcal/mol |
| CTGTTCACGTGCGGGT | 0.23 kcal/mol |
| TTCAGCACGTGTGTAG | -0.19 kcal/mol |
| ATATACACGTGTATTT | 0.03 kcal/mol |
| AGATTCACGTGGTTTG | 0.13 kcal/mol |
| GCTGTCACGTGGTCTG | 0.01 kcal/mol |
| GTAAACACGTGGTTTT | -0.03 kcal/mol |
| GATTTCACGTGTTAGT | 0.46 kcal/mol |
| TGAAACACGTGTGGTA | 0.18 kcal/mol |
| GCTGTCACGTGGGTTG | 0.04 kcal/mol |
| GGTTACACGTGAGATA | 0.21 kcal/mol |
| TGTTACACGTGTTGCC | 0.37 kcal/mol |
| GGAGGCACGTGGCTTC | 0 kcal/mol |
| GGAGGCACGTGATTGT | -0.01 kcal/mol |
| CGGGTCACGTGCGGAG | 0.09 kcal/mol |
| TTAGTCACGTGAGTCT | 0.3 kcal/mol |
| ATTTCCACGTGGTTGT | -0.01 kcal/mol |
| GATTGCACGTGGGTTA | -0.06 kcal/mol |
| AGCTGCACGTGGTTTG | -0.12 kcal/mol |
| TTGTTCACGTGTTATA | 0.27 kcal/mol |
